According to the supplement of paper PMC4967469:
A lower IC50 marks a more sensitive line; where the fit passes the top or lowest dose, that dose stands as a limit. For AUC the same curve is integrated over the 256-fold range of doses and scaled to a fraction; values near 1 show little effect. For some of these results: The top dose, if marked as inferred, is not printed in the source and was worked back from the curve model. For some of these results: An entry number marks a drug with two screens in the source, which often give different values.

Columns and labels:
Assay in all cases: Viability of human cancer cell lines after 72 h of drug (GDSC screen)
UNC0638 = compound: COc1cc2c(NC3CCN(C(C)C)CC3)nc(C3CCCCC3)nc2cc1OCCCN1CCCC1 [UNC0638]
Experimental: (§1)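 Human cancer cell lines in 384-well plates, medium with 10% serum, drug for 72 h over a 256-fold dose range (nine 2-fold or five 4-fold steps up to the top dose). Adherent lines were fixed and stained with the nucleic acid dye Syto60, suspension lines read with resazurin; signal relative to control wells, capped at 0 and 100%. One two-parameter sigmoid per drug and line, fitted in a mixed model over all curves with the slope shared within a line.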

SB-505124 = compound: Cc1cccc(-c2[nH]c(C(C)(C)C)nc2-c2ccc3c(c2)OCO3)n1 [SB-505124]; settings: top dose 10 µM; top dose inferred
Experimental: as §1

GSK690693 = compound: CCn1c(-c2nonc2N)nc2c(C#CC(C)(C)O)ncc(OC[C@H]3CCCNC3)c21 [GSK690693]; settings: top dose 10.24 µM; top dose inferred
Experimental: as §1

PI-103 = compound: Oc1cccc(-c2nc(N3CCOCC3)c3oc4ncccc4c3n2)c1 [PI-103]; settings: top dose 10.24 µM
Experimental: as §1

Tretinoin = compound: CC1=C(/C=C/C(C)=C/C=C/C(C)=C/C(=O)O)C(C)(C)CCC1 [Tretinoin]; settings: top dose 10 µM; top dose inferred
Experimental: as §1

BX-795 = compound: O=C(NCCCNc1nc(Nc2cccc(NC(=O)N3CCCC3)c2)ncc1I)c1cccs1 [BX-795]; settings: top dose 5 µM; top dose inferred
Experimental: as §1

[1] = top dose 20 µM, screen: GDSC drug entry 1236, top dose inferred
[2] = top dose 40 µM, screen: GDSC drug entry 245

Row | Cell Line | AUC (UNC0638; [1]) | IC50 (UNC0638; [1]) | AUC (UNC0638; [2]) | IC50 (UNC0638; [2]) | AUC (SB-505124) | IC50 (SB-505124) | AUC (GSK690693) | IC50 (GSK690693) | AUC (PI-103) | IC50 (PI-103) | AUC (Tretinoin) | IC50 (Tretinoin) | AUC (BX-795) | IC50 (BX-795)
1 | SK-MES-1 (lung squamous cell carcinoma, adherent) | 0.873 | > 20 µM | 0.656 | 7.08 µM | 0.959 | > 10 µM | 0.98 | > 10.2 µM | 0.468 | 0.52 µM | 0.981 | > 10 µM | 0.822 | 3.27 µM
2 | SK-MG-1 (glioma, adherent) | 0.798 | 9.61 µM | 0.754 | 13.6 µM | 0.984 | > 10 µM | 0.987 | > 10.2 µM | 0.987 | > 10.2 µM | 0.987 | > 10 µM | 0.762 | 1.81 µM
3 | SK-N-AS (neuroblastoma, adherent) | 0.956 | > 20 µM | 0.781 | 19.4 µM | 0.982 | > 10 µM | 0.969 | > 10.2 µM | 0.539 | 0.833 µM | 0.858 | > 10 µM | 0.864 | > 5 µM
4 | SK-N-SH (neuroblastoma, adherent) | 0.951 | > 20 µM | 0.895 | > 40 µM | 0.969 | > 10 µM | 0.975 | > 10.2 µM | 0.787 | 4.42 µM | 0.834 | 6.43 µM | 0.792 | 2.24 µM
5 | SK-OV-3 (ovary, adherent) | 0.882 | > 20 µM | 0.638 | 6.67 µM | 0.978 | > 10 µM | 0.732 | 3.54 µM | 0.388 | 0.292 µM | 0.97 | > 10 µM | 0.919 | > 5 µM
6 | SKG-IIIa (cervix, adherent) | 0.98 | > 20 µM | 0.98 | > 40 µM | 0.973 | > 10 µM | 0.983 | > 10.2 µM | 0.983 | > 10.2 µM | 0.968 | > 10 µM | 0.901 | > 5 µM
7 | SKN (uterus, adherent) | 0.826 | 15.7 µM | 0.713 | 11.5 µM | 0.94 | > 10 µM | 0.957 | > 10.2 µM | 0.764 | 4.49 µM | 0.878 | > 10 µM | 0.684 | 1.14 µM
8 | SKN-3 (head and neck, adherent) | 0.776 | 9.45 µM | 0.822 | 29.1 µM | 0.951 | > 10 µM | 0.981 | > 10.2 µM | 0.899 | > 10.2 µM | 0.884 | > 10 µM | 0.887 | > 5 µM
9 | SNG-M (endometrium, adherent) | 0.763 | 7.06 µM | 0.986 | > 40 µM | 0.981 | > 10 µM | 0.743 | 3.11 µM | 0.278 | 0.152 µM | 0.984 | > 10 µM | 0.888 | > 5 µM
10 | SNU-61 (large intestine, adherent) | 0.966 | > 20 µM | 0.86 | > 40 µM | 0.977 | > 10 µM | 0.955 | > 10.2 µM | 0.913 | > 10.2 µM | 0.982 | > 10 µM | 0.979 | > 5 µM
11 | SNU-81 (large intestine, adherent) | 0.98 | > 20 µM | 0.835 | > 40 µM | 0.98 | > 10 µM | 0.554 | 0.944 µM | 0.967 | > 10.2 µM | 0.981 | > 10 µM | 0.865 | > 5 µM
12 | SNU-182 (liver, adherent) | 0.849 | 16 µM | 0.936 | > 40 µM | 0.976 | > 10 µM | 0.986 | > 10.2 µM | 0.459 | 0.493 µM | 0.986 | > 10 µM | 0.891 | > 5 µM
13 | SNU-387 (liver, adherent) | 0.773 | 8.92 µM | 0.638 | 6.35 µM | 0.982 | > 10 µM | 0.955 | > 10.2 µM | 0.983 | > 10.2 µM | 0.978 | > 10 µM | 0.75 | 1.84 µM
14 | SNU-407 (large intestine, adherent) | 0.929 | > 20 µM | 0.908 | > 40 µM | 0.979 | > 10 µM | 0.847 | 9.52 µM | 0.88 | > 10.2 µM | 0.983 | > 10 µM | 0.828 | 3.81 µM
15 | SNU-423 (liver, adherent) | 0.685 | 4.53 µM | 0.672 | 8.25 µM | 0.959 | > 10 µM | 0.801 | 6 µM | 0.226 | 0.0867 µM | 0.951 | > 10 µM | 0.862 | > 5 µM
16 | SNU-449 (liver, adherent) | 0.82 | 12.9 µM | 0.923 | > 40 µM | 0.985 | > 10 µM | 0.986 | > 10.2 µM | 0.354 | 0.242 µM | 0.976 | > 10 µM | 0.896 | > 5 µM
17 | SNU-C5 (large intestine, adherent) | 0.938 | > 20 µM | 0.979 | > 40 µM | 0.984 | > 10 µM | 0.969 | > 10.2 µM | 0.735 | 3.25 µM | 0.986 | > 10 µM | 0.903 | > 5 µM
18 | SU8686 (pancreas, adherent) | 0.84 | 16.3 µM | 0.821 | 26.9 µM | 0.984 | > 10 µM | 0.966 | > 10.2 µM | 0.908 | > 10.2 µM | 0.985 | > 10 µM | 0.959 | > 5 µM
19 | SU-DHL-5 (B-cell lymphoma, suspension) | 0.647 | 2.86 µM | 0.411 | 1.52 µM | 0.946 | > 10 µM | 0.116 | 0.0636 µM | 0.096 | 0.054 µM | 0.979 | > 10 µM | 0.679 | 0.855 µM
20 | SUIT-2 (pancreas, adherent) | 0.842 | 15.1 µM | 0.647 | 6.54 µM | 0.985 | > 10 µM | 0.976 | > 10.2 µM | 0.984 | > 10.2 µM | 0.981 | > 10 µM | 0.896 | > 5 µM
